# Results as given in the antibiotic and cytotoxicity screens of Wong et al. (2023).
# This is one part of the list.
# How the values were obtained:
# HSkMC = human skeletal muscle cells; test: cytotoxicity call (relative viability < 0.9); conditions: 10 µM
# HepG2 = test: cytotoxicity call (relative viability < 0.9); conditions: 10 µM
# S. aureus RN4220 = test: growth inhibition call (relative growth <= 0.2); conditions: 50 µM
SMILES,cytotoxicity call (HSkMC),cytotoxicity call (HepG2),growth inhibition call (S. aureus RN4220)
CCCNC(=O)N1C[C@H](O)COC[C@@H]2O[C@H](CC(=O)NCCCN3CCOCC3)CC[C@H]21,inactive,inactive,inactive
COc1ccc(S(=O)(=O)Nc2ccc3c(c2)C(=O)N([C@@H](C)CO)C[C@@H](C)[C@@H](CN(C)C(=O)Nc2ccc(F)cc2)OCCCC[C@@H](C)O3)cc1,inactive,inactive,inactive
Cc1cn(-c2cc(NC(=O)c3ccc(C)c(Nc4nccc(-c5cccnc5)n4)c3)cc(C(F)(F)F)c2)cn1,active,active,inactive
C=CC(C)(O)CCC=C(C)CCC=C(C)C (stereo unspecified),inactive,active,inactive
CCCCCCCCC#CCCCCCCCC(=O)O,inactive,inactive,inactive
Brc1ccc(-c2ccc(Br)s2)s1,inactive,inactive,inactive
COc1ccc(NC(=O)N(C)C[C@H]2OCc3ccccc3-c3c(n(C)c4ccccc34)C(=O)N([C@@H](C)CO)C[C@H]2C)c(OC)c1,inactive,inactive,inactive
Cc1noc(C)c1S(=O)(=O)Nc1cccc2c1O[C@H](CN(C)S(=O)(=O)c1cn(C)cn1)[C@H](C)CN([C@H](C)CO)C2=O,inactive,inactive,inactive
Cc1ccc(O)c(CO)n1,inactive,inactive,inactive
C[C@H](CO)N1C[C@H](C)[C@H](CN(C)C(=O)c2ccccc2)OCCCC[C@H](C)Oc2ccc(NC(=O)Nc3ccccc3)cc2C1=O,inactive,inactive,inactive
Cc1noc(C)c1S(=O)(=O)N(C)C[C@H]1Oc2ccc(NS(=O)(=O)c3ccc(Cl)cc3)cc2CC(=O)N([C@@H](C)CO)C[C@H]1C,inactive,inactive,inactive
C[C@@H]1CN([C@H](C)CO)C(=O)c2cccc(NC(=O)Nc3cccc4ccccc34)c2O[C@@H]1CN(C)C(=O)Nc1ccccc1,inactive,inactive,inactive
O=C(NCCO)C1=C[C@H](Oc2ccccc2I)[C@@H](O)[C@H](N(Cc2ccco2)C(=O)Cc2ccccc2)C1,inactive,inactive,inactive
COc1ccccc1S(=O)(=O)N[C@@H]1CC[C@H](CCNC(=O)C2CC2)O[C@@H]1CO,inactive,inactive,inactive
C[C@H](CO)N1C[C@H](C)[C@H](CN(C)Cc2ccc(C(=O)Nc3ccccc3N)cc2)Oc2ccc(NC(=O)NC3CCCCC3)cc2CC1=O,inactive,inactive,inactive
C[C@@H]1CN([C@@H](C)CO)C(=O)c2cc(NC(=O)Nc3cccc4ccccc34)ccc2O[C@@H](C)CCCCO[C@H]1CN(C)Cc1ccc(Cl)c(Cl)c1,inactive,inactive,inactive
C[C@@H]1CN([C@H](C)CO)S(=O)(=O)c2ccc(C#Cc3ccncc3)cc2O[C@H]1CN(C)C(=O)c1ccncc1,inactive,active,inactive
C[C@H](CO)N1C[C@H](C)[C@H](CN(C)C(=O)Nc2ccc3c(c2)OCO3)Oc2ccc(NC(=O)CCN3CCOCC3)cc2CC1=O,inactive,inactive,inactive
COc1ccc(NC(=O)N(C)C[C@H]2OCCCC[C@@H](C)Oc3ccc(NS(=O)(=O)c4ccc(C)cc4)cc3C(=O)N([C@@H](C)CO)C[C@H]2C)cc1,inactive,inactive,inactive
COc1ccccc1NC(=O)N(C)C[C@@H]1Oc2cc(Br)ccc2S(=O)(=O)N([C@H](C)CO)C[C@H]1C,inactive,inactive,inactive
COc1cccc(NC(=O)N(C)C[C@@H]2Oc3cc(C#Cc4ccncc4)ccc3S(=O)(=O)N([C@H](C)CO)C[C@@H]2C)c1,inactive,active,inactive
C[C@@H]1CCCCO[C@H](CN(C)C)[C@H](C)CN([C@H](C)CO)C(=O)c2cc(NS(=O)(=O)c3cn(C)cn3)ccc2O1,inactive,inactive,inactive
CC(=O)/C=C/c1ccc(-c2ccc([C@H]3CC(=O)C[C@@H](c4ccccc4)C34C(=O)c3ccccc3C4=O)cc2)cc1,inactive,inactive,inactive
CC1(C)Cc2cc(CN)ccc2O1,inactive,inactive,inactive
C[C@H](CO)N1C[C@H](C)[C@@H](CN(C)Cc2ccc(C(F)(F)F)cc2)Oc2c(NS(C)(=O)=O)cccc2C1=O,inactive,inactive,inactive
C[C@@H]1CN([C@@H](C)CO)C(=O)c2cccc(NC(=O)C3CCCCC3)c2O[C@H]1CN(C)Cc1ccc(-c2ccccc2)cc1,inactive,inactive,inactive
C[C@@H]1CN([C@@H](C)CO)C(=O)c2cc(NS(=O)(=O)c3cn(C)cn3)ccc2O[C@@H]1CN(C)Cc1ccc2c(c1)OCO2,inactive,inactive,inactive
